# Laboratory results taken from publication PMC9574860, “Chemical Toolkit for PARK7: Potent, Selective, and High-Throughput” (Journal of Medicinal Chemistry, 2022).
# In all, about 7,900 compounds went through this assay and about 400 (5.1%) showed an effect of 50% or more. This is one part of the list.
# Biological target: Parkinson's disease protein 7 (PARK7/DJ1) (human, UniProt Q99497)
# Experiment: primary screen, percent inhibition; read as competition with a fluorescent probe by fluorescence polarization; higher = more effect of the substance
# Conditions: 100 µM
# Procedure, shortened: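 Fluorescence-polarization probe displacement (JYQ-107, 20 nM final, 2 h) after 2 h preincubation of PARK7 (0.2 μM final) with each fragment at 100 μM final. Read-out ex/em 480/520 nm; remaining activity derived from FP signal loss relative to reference controls.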
# Parkinson's disease protein 7 (PARK7/DJ1), sequence (Q99497 whole entry, looked up): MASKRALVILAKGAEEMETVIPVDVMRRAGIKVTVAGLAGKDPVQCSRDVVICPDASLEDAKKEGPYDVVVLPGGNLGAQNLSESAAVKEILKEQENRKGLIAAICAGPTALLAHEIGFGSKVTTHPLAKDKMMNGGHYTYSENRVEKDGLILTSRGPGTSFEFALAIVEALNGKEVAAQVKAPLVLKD
row,Compound,Inhibition % [%]
1,Cl.O=C(CCl)N1CCN(Cc2c(F)cccc2Cl)CC1,4.23
2,Cc1cc(S(=O)(=O)n2cccn2)c(C)cc1Cl,-0.661
3,CCc1nn(C)cc1NS(=O)(=O)c1cccc(S(=O)(=O)F)c1,95.4
4,O=C(CCl)NCC#Cc1ccccc1,1.08
5,C=CC(=O)N1CCn2cccc2C1CC (stereo not shown),2.16
6,CC1CC(N2CCN(Cc3cccc(O)c3)CC2)C(=O)O1 (stereo not shown),4.59
7,C=CC(=O)N(C)C1CCC(=O)N(C)C1 (stereo not shown),2.89
8,O=S(=O)(F)c1ccc(S(=O)(=O)Nc2cccnc2O)cc1,8.42
9,CC1(C)OB(c2c(Cl)cccc2C#N)OC1(C)C,0.642
10,N#CC(=Cc1ccc(-c2ccc(Cl)cc2Cl)o1)C(N)=O,3.17
11,C=CC(=O)Nc1cnn2c1CCCC2,10.1
12,CC(C)NC(=O)C(C#N)=Cc1cccc(F)c1F,13
13,Cc1ccc(C)c(C2CO2)c1 (stereo not shown),8.28
14,Cc1ncc(C=CC(=O)N2CCNC(C)C2)s1 (stereo not shown),6.77
15,C=CC(=O)NC1(C)CCOC1C (stereo not shown),6.75
16,C=CC(=O)N1CCCc2cccc(OC)c21,3.82
17,CC1CCCC(C)N1C(=O)C=Cc1ccccn1 (stereo not shown),16.8
18,CC1(C)OB(c2ccc(S(N)(=O)=O)c(N)c2)OC1(C)C,4.77
19,C=CC(=O)N(Cc1nc(C)cs1)CC1CCCO1 (stereo not shown),4.68
20,C=CC(=O)NC1CCCN(c2ccnn2C)C1 (stereo not shown),26.2
21,CS(=O)(=O)OCC1(C#N)CCCCC1,8.05
22,C=CC(=O)N1CCC(C(=O)O)(c2ccccc2)CC1,2.37
23,COC(=O)c1ccc(CS(=O)(=O)F)cc1,7.95
24,CC1(C)CCC2OC2C1 (stereo not shown),5.09
25,C=CC(=O)Nc1cc(OC)c2ncccc2c1,29.3

row,Compound,Inhibition % [%]
1,CNC(=O)Cn1nc(-c2ccc(F)cc2)oc1=O,16.9
2,CN(C)S(=O)(=O)C=Cc1ccc(Cl)cc1,11.6
3,O=C(CCl)N(Cc1ccc(F)cc1)C1CCCCC1,8.38
4,ClCCC1CCOCC1,4.65
5,C=CC(=O)NC1CCCN(c2ccnn2C)C1=O (stereo not shown),17.8
6,C=CC(=O)NC(C)C(C)n1cncn1 (stereo not shown),14.2
7,CC1(C)OB(c2ccnc3c(O)cccc23)OC1(C)C,22.4
8,COc1cc(C)c(C)cc1S(=O)(=O)n1ccc(C)n1,2.99
9,C=CC(=O)N1CCCC(C(C)NC(=O)NC(C)(C)C)C1 (stereo not shown),9.75
10,CC(C)C1CN(c2ccc(C#N)nc2)CCS1 (stereo not shown),6.47
11,O=C1CN=C(S)N1Cc1ccco1,34.1
12,N#Cc1c2c(n(-c3ccccc3)c1NC(=O)CCl)CCCC2,5.73
13,Cc1cc(C)c(NC(=O)Cn2cnc(C#N)n2)c(Cl)c1,29.5
14,N#CC1(NC(=O)CCl)CCCC1,26.3
15,C=CC(=O)N[C@@H]1CCO[C@H]1CC (racemic),3.31
16,C=CC(=O)NC1CCCN(c2ccccc2)C1=O (stereo not shown),7.42
17,O=C1CC(C(F)(F)F)N(C(=O)CCl)c2ccccc2N1 (stereo not shown),53
18,N#Cc1ncn(CCS(=O)c2ccccc2)n1 (stereo not shown),7.78
19,C=CC(=O)NC(C)C1(C)CC1 (stereo not shown),3.08
20,O=S(=O)(Oc1cnc2ccccc2c1)c1cccnc1,20.6
21,NS(=O)(=O)c1ccc(CCNC(=O)CCl)cc1,17.2
22,Cn1c(SC2CCOC2=O)nnc1-c1ccccc1 (stereo not shown),12.6
23,N#Cc1ccc(C(F)(F)F)nn1,4.49
24,C=CC(=O)NCc1ccc2occc2c1,9.29
25,CS(=O)C1(CNC(=O)c2cccc(S(=O)(=O)F)c2)CCC1 (stereo not shown),97.3

row,Compound,Inhibition % [%]
1,Fc1ccc(CC2CO2)cc1 (stereo not shown),6.59
2,N#Cc1nccnc1NCC12CC3CC(CC(C3)C1)C2,3.91
3,C=CC(=O)N1CCN(C)c2cc(Cl)ccc21,21.6
4,O=C1CC(c2ccco2)N1 (stereo not shown),28.2
5,CCN(Cc1ccnc(C#N)c1)CC1CCOC1 (stereo not shown),11.3
6,COC(=O)c1ccc(Oc2ccc(C#N)nc2)cc1,6.29
7,C=CC(=O)N1CCC(n2nnc3c2CCCC3)CC1,8.25
8,O=S(=O)(C=Cc1ccc(Cl)cc1)NCCc1ccco1,-0.751
9,C=CC(=O)N1CCOCc2ccccc21,6.03
10,Cc1ncc(B2OC(C)(C)C(C)(C)O2)cc1Cl,6.15
11,CCOc1ccccc1NC(=O)CCl,13.1
12,O=C1CN=C(S)N1Cc1ccccc1,6.43
13,N#CC(=Cc1ccc(Cl)cc1)C(=O)O,0.42
14,Cc1n[nH]c(C)c1CNc1ccc(Cl)c(C#N)n1,1.98
15,CN(Cc1cccs1)C(=O)Cn1cnc(C#N)n1,-3.76
16,c1ccc(COC2CC3OC3C2)cc1 (stereo not shown),0.774
17,N#Cc1[nH]c2ccccc2c1N,72.9
18,O=C1NC(C(=O)N2CCCC2c2ccccc2Cl)CS1 (stereo not shown),6.93
19,O=S(=O)(F)c1cccc(S(=O)(=O)Nc2cccnc2O)c1,99.4
20,C=CC(=O)N1CCOC(OC)C1 (stereo not shown),8.53
21,O=C(CCl)c1cscn1,101
22,O=C(CCCl)N1CCN(c2ccc(F)cc2)CC1,6.06
23,CC1CCc2c(sc(NC(=O)CCl)c2C(N)=O)C1 (stereo not shown),5.01
24,C=CC(=O)N1CCCC(NS(C)(=O)=O)C1 (stereo not shown),7.88
25,COc1ccc(C2NCC(CCl)O2)c(OC)c1 (stereo not shown),-0.766

row,Compound,Inhibition % [%]
1,C=CC(=O)N1CCN(c2ncns2)CC1,8.81
2,CS(=O)(=O)C(C#N)=Cc1ccc(-c2ccccc2F)o1,5.46
3,O=C(CCl)N1c2ccccc2CCc2ccccc21,61
4,CCC1c2ccsc2CCN1C(=O)C=Cc1cnn(C)c1 (stereo not shown),10.2
5,CNc1nc(SC2CC(C)OC2=O)nc2ccccc12 (stereo not shown),3.03
6,Cc1ccc(C=C(C#N)C(=O)NCc2ccco2)cc1F,4.94
7,Cc1ccc(NC(=O)CCl)c(C)c1,-1.64
8,O=C(CCl)NCC1CCCO1 (stereo not shown),5.15
9,O=C(CCl)NCCc1ccc(Cl)cc1,41.2
10,N#CC(=Cc1cccc(F)c1F)C(=O)NCC1CCCO1 (stereo not shown),9.53
11,OB(O)c1ccc(-c2ccccc2)cc1F,24.2
12,C=CC(=O)N1CCOc2cc(F)ccc2C1,7.81
13,Cc1ccnc(NC(=O)CN2C(=O)CCC2=O)c1,-0.475
14,N#Cc1cc(Cl)c2ccccc2n1,2.16
15,C=CC(=O)NCc1nc(C2CC2)cs1,9.27
16,O=C(CCl)Nc1ncc(Cc2ccccc2Cl)s1,1.2
17,CC1CCCN(C(=O)C=Cc2ccnn2C)C1CN.Cl (stereo not shown),27.8
18,O=S(=O)(C=Cc1ccccc1)NC1CCCn2ncnc21 (stereo not shown),12.3
19,CC(C)Cn1c(-c2ncccn2)noc1=O,13.6
20,COc1ccc(COCC2CO2)cc1 (stereo not shown),6.22
21,C=CC(=O)N1Cc2ccc(Cl)cc2C1,3.47
22,C=CC(=O)Nc1ccn(CC(F)F)n1,6.45
23,N#Cc1c(NC(=O)c2cncc(F)c2)nc2n1CCS2,7.25
24,Cc1cc(Cl)cnc1C#N,2.43
25,CO[C@H]1C[C@@H](CN(C)C(=O)c2c[nH]c(C#N)c2)N(C)C1,8.24

row,Compound,Inhibition % [%]
1,N#CC(=Cc1cccc2ccccc12)C(=O)NC1CC1,9.24
2,Cc1ccccc1CN1CCCN(C(=O)CCl)CC1.Cl,26.4
3,C=CC(=O)Nc1cn(C)nc1C(C)C,8.9
4,Cl.Cl.NC1CCN(C2CCOC2=O)CC1 (stereo not shown),5.74
5,CC1Cc2ccccc2N1C(=O)Cn1cnc(C#N)n1 (stereo not shown),5.82
6,C=CC(=O)N1CC2(CCOCC2)C1,23
7,C1COCCN1.N#Cc1c(C(F)(F)F)cc(=O)[nH]c1S,9.53
8,O=S1(=O)CCCN1c1cccc(NCc2cccc(B(O)O)c2)c1,6.59
9,C#Cc1ccc(C=C(C#N)C(=O)Nc2ccncc2)cc1,73.3
10,C=CC(=O)NCCN(C)C1CCCCC1,10.8
11,CCC1CN(S(=O)(=O)c2ccc(S(=O)(=O)F)cc2)C(C)CO1 (stereo not shown),13.4
12,CC1(C)OB(c2cnc(N)nc2)OC1(C)C,5.6
13,C=C(Cl)CSc1nnc(N)s1,1.46
14,O=C1OCCC1Sc1nnnn1-c1cccc(F)c1 (stereo not shown),13.6
15,CC1(C)OB(c2ccc(C(F)C(F)(F)F)cc2)OC1(C)C (stereo not shown),3.09
16,CC(=O)N1CCC(CCl)CC1,2.96
17,C=CC(=O)NCc1nnc(C2CC2)o1,6.84
18,CS(=O)(=O)OCC1CCCCCC1,17.5
19,CC(NC(=O)CCl)c1ccc2c(c1)OCO2 (stereo not shown),10.2
20,Cc1ccc(S(=O)(=O)F)nn1,65.4
21,COC(=O)c1ccc(Cl)c(S(=O)(=O)F)c1,9.08
22,C=CC(=O)NCC1CCC2(COC(C)C2)O1 (stereo not shown),2.62
23,CCN(C(=O)Cn1c(S)nc2ccccc2c1=O)C1CC1,0.694
24,Cc1nn(-c2ccccc2)c(N)c1SC#N,2.07
